Results on 167 variants are retold here after the RNAGym collection of RNA variant scans (doi:10.7554/elife.90254).

Read counts are not given, so values of variants with three or more changes are uncertain.

The labels stand for the following.
B1: LINE1-mini (parent)
chain: GGCAGAGCUCAACACAGCGUGGCAAAGUGGCUGUGGCUAGACUGCC

In the series the parent is B1. Kind of series: self-cleavage, relative activity (ratio to wild type); higher = more cleavage; in vitro, sequencing; the parent is a self-cleaving ribozyme.
As for G27U G29C U32A C42U, the self-cleavage was determined as 0.05.

Take U28A C37U G40A C45U: the self-cleavage was determined as 0.02.

On to G29A C37G U38C A41G, for which the self-cleavage is 0.02.

For the variant U28C U34C G36U C46G, the self-cleavage was 0.05.

In the case of G27U U28C C42A U43G, the self-cleavage came out at 0.04.

Consider G29A G36C C42U, for which the self-cleavage is 0.16.

For G29A C37A C46U, the self-cleavage worked out at 0.03.

Consider G27U U28G C31G G36U C37G, for which the self-cleavage worked out at 0.01.

As to U28C G33A G44A, the self-cleavage amounted to 0.05.

For the variant U28G G36A U43A, the self-cleavage is 0.04.

Regarding G27U G30C C42A C45G, the self-cleavage worked out at 0.03.

On to G27U G35A G36C, for which the self-cleavage stood at 0.2.

Take G29A U34A A41C: the self-cleavage stood at 0.1.

As for U28G U34C G40A, the self-cleavage was 0.03.

In the case of G27U G29A A39C C42U, the self-cleavage turned out to be 0.12.

Consider U28C U34A A41C C46U, for which the self-cleavage came to 0.02.

In the case of U28C U34C G40U, the self-cleavage stood at 0.03.

Take G29A G30C C37U: the self-cleavage was 0.15.

On to G27U U34G G40C, for which the self-cleavage was found to be 0.01.

Turning to G27U G40U C46A, the self-cleavage came to 0.06.

As to G27U C31A C37G, the self-cleavage stood at 0.02.

Regarding G27U C42A U43A, the self-cleavage came out at 0.02.

On to G27U G36U A39U, for which the self-cleavage was determined as 0.02.

U28A G30A G33A: the self-cleavage is 0.11.

For the variant G27U U28C C45A, the self-cleavage turned out to be 1.19.

For the variant G29A G33C G44C, the self-cleavage came out at 0.02.

As to G27U C31A G40C, the self-cleavage turned out to be 0.48.

For the variant U28G G33C C37A, the self-cleavage came to 0.02.

For the variant G29A G36U A41C C45U, the self-cleavage came to 0.23.

As to U28G U38G A39G, the self-cleavage turned out to be 0.02.

Consider G29A G30U U32C A41C, for which the self-cleavage was found to be 0.02.

For the variant G27C U34A G36U A41U, the self-cleavage stood at 0.08.

With G27U G40U G44A, the self-cleavage was 0.06.

Regarding G29A C31U C37U G40U, the self-cleavage came out at 0.15.

As for U28A G29C C37U C46G, the self-cleavage was 0.05.

U28G U32G U34A U38C G44U: the self-cleavage came out at 0.02.

On to G27U G36C U38A, for which the self-cleavage turned out to be 0.03.

Consider G27U G29C U38C, for which the self-cleavage worked out at 0.45.

For the variant G27C U38C G40A, the self-cleavage came to 0.02.

Turning to U28G C37G U43C, the self-cleavage was determined as 0.09.

For U28A G29C U43G, the self-cleavage was 0.01.

Take U28C G33C C42U: the self-cleavage was determined as 0.03.

With G27U U28C U43A, the self-cleavage amounted to 0.16.

For G27C U28G G29C C31G, the self-cleavage was found to be 0.1.

In the case of G27U G44U C45A C46U, the self-cleavage was 0.03.

As for U28G C31G C45G, the self-cleavage turned out to be 0.01.

Take U28G U34G G40U: the self-cleavage was determined as 0.01.

With G27U G29A G33C, the self-cleavage was 0.2.

For U28A G30C G35C, the self-cleavage came out at 0.02.

As to U28A U32A C46U, the self-cleavage amounted to 0.09.

As to U28C U32A A39C, the self-cleavage turned out to be 0.01.

For U28A G29A U32C, the self-cleavage was 0.09.

Regarding G29A A39C C45G, the self-cleavage was 0.63.

For the variant U28C C42U C45U, the self-cleavage came out at 0.1.

For the variant U28G C37G G40A, the self-cleavage was determined as 0.07.

As to U28A G40C U43G, the self-cleavage was found to be 0.08.

For the variant U28G G35C C42U, the self-cleavage is 0.07.

Turning to G29A U32G G35C, the self-cleavage is 0.2.

In the case of U28G G36A U38G C42A, the self-cleavage amounted to 0.

In the case of G29A U34A A39C, the self-cleavage amounted to 0.13.

With U28G G33A C42U G44U, the self-cleavage turned out to be 0.05.

With G27U A41G G44C C45G, the self-cleavage turned out to be 0.04.

For the variant U28G A41C C45G, the self-cleavage is 0.04.

Consider G27U C31A C45U, for which the self-cleavage was determined as 0.42.

As for G27U A39G G40U, the self-cleavage was 0.15.

G27U U32G U34A C42U U43A C46A: the self-cleavage was found to be 0.21.

Turning to G29A U32A G33C C37G, the self-cleavage stood at 0.02.

Consider U28A G33A G35C G44U C45U C46A, for which the self-cleavage is 0.05.

For U28G A39G G44U, the self-cleavage was determined as 0.13.

Consider G27C U34A C42A, for which the self-cleavage was found to be 0.07.

On to U28A U34C A39G, for which the self-cleavage stood at 0.01.

As for U28A U34G U38G C42A, the self-cleavage was determined as 0.02.

Consider G27U G29C G40U C45U, for which the self-cleavage stood at 0.07.

As for U28G G35C C45U, the self-cleavage worked out at 0.02.

For the variant G27U G33U C42A, the self-cleavage was found to be 0.05.

For the variant G29A A39U G40U, the self-cleavage was found to be 0.12.

Regarding G27U G35A C37U G40U, the self-cleavage is 0.07.

For the variant U28C U32C C45A, the self-cleavage was 0.01.

On to G29A C37A U38A, for which the self-cleavage was determined as 0.04.

With G27U U28A G30U, the self-cleavage was determined as 0.28.

As to G27C U32C A39G, the self-cleavage worked out at 0.04.

As for G27U G30U A39C C46A, the self-cleavage came out at 0.32.

As for U28G C31U G33C G44A, the self-cleavage is 0.03.

Consider U28G U38G G40C, for which the self-cleavage worked out at 0.02.

Turning to U28C U34G C45A, the self-cleavage came to 0.02.

For G29A G36U A39C, the self-cleavage was determined as 0.02.

On to U28C G29U C31G C42A, for which the self-cleavage worked out at 0.01.

Consider U28C U34C G35A, for which the self-cleavage turned out to be 0.04.

U28A G40U C42G: the self-cleavage was 0.02.

For G29A G36A C45U, the self-cleavage worked out at 0.18.

For the variant U28C G36U A39G, the self-cleavage was found to be 0.

On to G29A C42A U43A, for which the self-cleavage was 0.04.

As for G27U C45A C46A, the self-cleavage stood at 0.03.

G27U G30C G40C: the self-cleavage was 0.09.

Take G27U G33C A41C: the self-cleavage was found to be 0.02.

Regarding G27U C37A G40C, the self-cleavage turned out to be 0.3.

Take G27C U32A G35C U43G G44U C45A: the self-cleavage is 0.02.

Take U28G U38C C42A: the self-cleavage is 0.04.

U28C G35U G36A U38G: the self-cleavage was determined as 0.03.

As to U28C U34G A41U C42G, the self-cleavage is 0.04.

Turning to G29A U34C A41U, the self-cleavage was determined as 0.1.

On to G29A G35C G36A, for which the self-cleavage was 0.06.

Consider U28G A41U C45A, for which the self-cleavage is 0.22.

With G27U G29C C45G, the self-cleavage stood at 0.12.

Take G27U G29C C45U: the self-cleavage was found to be 0.39.

As to U28G G29A G36U A41G, the self-cleavage is 0.08.

With G27U G30U G36C C42A, the self-cleavage was determined as 0.04.

Turning to U28C G29A G44C, the self-cleavage amounted to 0.59.

Consider U28G G44A C45U, for which the self-cleavage was found to be 0.02.

Take G27U U43A C46A: the self-cleavage was found to be 0.05.

For U28A U32G U34C G44A C45U, the self-cleavage amounted to 0.

Take G27U U34C C45G: the self-cleavage is 0.08.

In the case of U28G G30U G33C C45G, the self-cleavage was determined as 0.01.

Regarding U28A A39U C42G, the self-cleavage turned out to be 0.

For U28C G33C G44U, the self-cleavage is 0.03.

With U28G U32G G33A G35U, the self-cleavage was found to be 0.18.

Take U28G G29C U34G C46U: the self-cleavage worked out at 0.2.

Consider U28G G40A C45G, for which the self-cleavage turned out to be 0.01.

As to G27C U34C C46A, the self-cleavage turned out to be 0.19.

G29A G36C C46A: the self-cleavage was 0.06.

For the variant U28C C31G G36U, the self-cleavage came out at 0.05.

For the variant U28C U32C U43C, the self-cleavage worked out at 0.02.

On to U28G G36U U43C, for which the self-cleavage stood at 0.02.

For G29A G35A C46U, the self-cleavage was determined as 0.24.

In the case of U28C G30A G33A, the self-cleavage is 0.35.

For G29A G33A C37U, the self-cleavage came out at 0.02.

With G29A C31G G36A C37A, the self-cleavage stood at 0.13.

Consider U28A U34G C42U, for which the self-cleavage turned out to be 0.05.

Take U28A G40U C42G C45G: the self-cleavage is 0.01.

For the variant G27U U28G C31G U34C G35U, the self-cleavage came out at 0.05.

In the case of U28G U38A G44U, the self-cleavage is 0.18.

For the variant U28C U32C U38C, the self-cleavage came out at 0.11.

Turning to G27U A41C C42U, the self-cleavage stood at 0.12.

In the case of G27C U34A A41U, the self-cleavage was found to be 0.06.

Turning to U28G U34A C42G, the self-cleavage turned out to be 0.01.

For the variant G29A G35A G36C, the self-cleavage came to 0.18.

As to G27U U32C G36A, the self-cleavage was 0.09.

With G27U U32C G36C, the self-cleavage stood at 0.08.

Take G27U U32C G36U: the self-cleavage was found to be 0.06.

With G27C U32A G36U, the self-cleavage came out at 0.04.

For the variant U28G U34A G36C U38C A41C, the self-cleavage came to 0.02.

G29A U32A A39U C42A: the self-cleavage came to 0.03.

As for G27U G30U C46A, the self-cleavage stood at 1.74.

Regarding G29A G36U U38A, the self-cleavage amounted to 0.02.

For the variant U28C U34C C37U, the self-cleavage is 0.06.

On to U28G C31U U34C C46G, for which the self-cleavage was determined as 0.

Turning to U28C G36C U43A, the self-cleavage was found to be 0.11.

G29A G30C G33A G35C A39C C46G: the self-cleavage was determined as 0.03.

With U28C G35U U38A G40U G44U C45A, the self-cleavage was 0.03.

Turning to U28C C31U C37U G44A, the self-cleavage came to 0.05.

With U28G G33A C45G, the self-cleavage is 0.02.

For G27U U28C A41U, the self-cleavage was found to be 0.46.

As for U28C C42A G44C, the self-cleavage stood at 0.08.

Consider G27U G33C G36A, for which the self-cleavage was 0.01.

On to U28G U34A A39U, for which the self-cleavage was determined as 0.08.

For U28C G29U A41U C45U, the self-cleavage was 0.02.

As to U28C C37U U43G, the self-cleavage was 0.02.

For the variant G29A U34G G40C, the self-cleavage was 0.04.

For U28A G29U U43A, the self-cleavage was 0.07.

With G27U U32G U34A, the self-cleavage turned out to be 0.04.

As to G29A C37U A39G C42A, the self-cleavage was 0.03.

For the variant U28G C45G C46U, the self-cleavage is 0.06.

On to G27U G40A A41C, for which the self-cleavage is 0.27.

On to U28G C42G C45G, for which the self-cleavage worked out at 0.03.

With U28G U32C U34G C45U, the self-cleavage stood at 0.02.

Take U28G G30A G33A U34A: the self-cleavage stood at 0.03.

With U28G U43G C46A, the self-cleavage was 0.15.
